The record followed here is a collection of fitness landscapes (doi:10.1016/j.celrep.2020.107928).

The full ranking holds about 81,000 sequences; the median of “one-hybrid fitness for binding NBS DNA” is about -0.1, and the highest 2% start at about 0.36. The list shows a part of the results.

First the molecules themselves.
B1: Caulobacter ParB omega fusion; a variant is named by its letters at X, in order, B8GW30 (parent)
chain: MESVVVGEPGMSEGRRGLGRGLSALLGEVDAAPAQAPGEQLGGSREAPIEILQRNPDQPRRTFREEDLEDLSNSIREKGVLQPILVRPSPDTAGEYQIVAGERAWRAAQRAGLKTVPIMVRELDDLAVLEIGIIENVQRADLNVLEEALSYKVLMEKFERTQENIAQTIGKSXSHVANXMRLLXLPDEVQSYLVSGELTAXHARAIAAAADPVALAKQIIEGGLSVRETEALARKAPNLSAGKSKGGRPPRVKDTDTQALESDLSSVLGLDVSIDHRGSTGTLTITYATLEQLDDLCNRLTRGI

This experiment covers variants of B1. Put plainly: one-hybrid fitness for binding NBS DNA (the Noc-binding site; scaled: cognate 1, non-cognate 0); higher = stronger binding. The following applies: with NBS DNA site. The method in brief: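 Bacterial one-hybrid selection in E. coli USO rpoZ- hisB- pyrF- with a HIS3 reporter carrying the site 19 bp from the promoter, screening Caulobacter ParB libraries with four specificity codons randomised (NNS). Cells grew 48 hours at 37°C on M9-minus-histidine plus 0.1 mM IPTG and 5 mM 3-AT. Plasmids before and after selection were Illumina-sequenced, three replicate libraries pooled, and variants under 10 reads dropped. Fitness is the log change in variant-to-wild-type read ratio, rescaled to cognate 1, non-cognate 0.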
In the case of PDCC, the “one-hybrid fitness for binding NBS DNA” value was not above 0.2.
Consider SDSD, for which the “one-hybrid fitness for binding NBS DNA” value was not above 0.2.
Take CKSS: the “one-hybrid fitness for binding NBS DNA” value is not above 0.2.
With NTVG, the “one-hybrid fitness for binding NBS DNA” value was not above 0.2.
Then SSIR, with not above 0.2; and VIKY, with not above 0.2; and LWRG, with not above 0.2.
In the case of ATIM it was not above 0.2; in that of KDRC, not above 0.2; in that of CCKV, not above 0.2.
As for EANY, the “one-hybrid fitness for binding NBS DNA” value is not above 0.2.
Then IRKQ, with not above 0.2; and ACIG, with not above 0.2.
MLNF: the “one-hybrid fitness for binding NBS DNA” value is not above 0.2.
As for SHPS, the “one-hybrid fitness for binding NBS DNA” value is not above 0.2.
Turning to WCCR, the “one-hybrid fitness for binding NBS DNA” value is not above 0.2.
In the case of AGEN it was not above 0.2; in that of KVMN, not above 0.2.
In the case of DSLY it was not above 0.2; in that of NNKR, not above 0.2; in that of FRPW, not above 0.2.
With LSRR, the “one-hybrid fitness for binding NBS DNA” value was not above 0.2.
In the case of GHLN it was not above 0.2.
For the variant QMWM, the “one-hybrid fitness for binding NBS DNA” value was not above 0.2.
Consider TGAG, for which the “one-hybrid fitness for binding NBS DNA” value was not above 0.2.
Turning to VHFT, the “one-hybrid fitness for binding NBS DNA” value is not above 0.2.
With HVKT, the “one-hybrid fitness for binding NBS DNA” value is not above 0.2.
Regarding NMYR, the “one-hybrid fitness for binding NBS DNA” value is not above 0.2.
Then TIGV, with not above 0.2; and PARN, with not above 0.2; and LMKL, with not above 0.2.
With PDMT, the “one-hybrid fitness for binding NBS DNA” value was not above 0.2.
Then HQMR, with not above 0.2; and KHLT, with not above 0.2.
Then AIPS, with not above 0.2; and IVRS, with not above 0.2; and YAII, with not above 0.2.
In the case of MRRL, the “one-hybrid fitness for binding NBS DNA” value is not above 0.2.
For the variant KRNF, the “one-hybrid fitness for binding NBS DNA” value was not above 0.2.
Turning to KIIC, the “one-hybrid fitness for binding NBS DNA” value is not above 0.2.
Turning to RVRQ, the “one-hybrid fitness for binding NBS DNA” value was not above 0.2.
For the variant AMFL, the “one-hybrid fitness for binding NBS DNA” value is not above 0.2.
As to QRLP, the “one-hybrid fitness for binding NBS DNA” value was not above 0.2.
Take MVPW: the “one-hybrid fitness for binding NBS DNA” value is not above 0.2.
In the case of DTWR it was not above 0.2; in that of HIMY, not above 0.2.
On to YAWL, for which the “one-hybrid fitness for binding NBS DNA” value is not above 0.2.
Then NLAR, with not above 0.2.
Turning to QGKI, the “one-hybrid fitness for binding NBS DNA” value is not above 0.2.
As for MMMS, the “one-hybrid fitness for binding NBS DNA” value is not above 0.2.
For RMQG, the “one-hybrid fitness for binding NBS DNA” value was not above 0.2.
As for VPSH, the “one-hybrid fitness for binding NBS DNA” value was not above 0.2.
As for FVTT, the “one-hybrid fitness for binding NBS DNA” value was not above 0.2.
In the case of PKPM, the “one-hybrid fitness for binding NBS DNA” value was not above 0.2.
Turning to TRDE, the “one-hybrid fitness for binding NBS DNA” value was not above 0.2.
Take KQHS: the “one-hybrid fitness for binding NBS DNA” value is not above 0.2.
As to EVHR, the “one-hybrid fitness for binding NBS DNA” value was not above 0.2.
For LHPD, the “one-hybrid fitness for binding NBS DNA” value was not above 0.2.
Then PHQK, with not above 0.2; and QQCD, with not above 0.2; and YSNF, with not above 0.2.
Regarding RDLA, the “one-hybrid fitness for binding NBS DNA” value was not above 0.2.
Regarding RYPG, the “one-hybrid fitness for binding NBS DNA” value was not above 0.2.
As for PDWL, the “one-hybrid fitness for binding NBS DNA” value is not above 0.2.
In the case of YSKD it was not above 0.2.
Consider RGTT, for which the “one-hybrid fitness for binding NBS DNA” value was not above 0.2.
Consider QMVD, for which the “one-hybrid fitness for binding NBS DNA” value is not above 0.2.
Consider LPHF, for which the “one-hybrid fitness for binding NBS DNA” value was not above 0.2.
Regarding GSQN, the “one-hybrid fitness for binding NBS DNA” value was not above 0.2.
As to PALN, the “one-hybrid fitness for binding NBS DNA” value was not above 0.2.
On to HEYG, for which the “one-hybrid fitness for binding NBS DNA” value was not above 0.2.
As to RSYI, the “one-hybrid fitness for binding NBS DNA” value is not above 0.2.
Turning to MTSS, the “one-hybrid fitness for binding NBS DNA” value is not above 0.2.
As for CHWS, the “one-hybrid fitness for binding NBS DNA” value is not above 0.2.
On to CLMR, for which the “one-hybrid fitness for binding NBS DNA” value is not above 0.2.
Consider DTIL, for which the “one-hybrid fitness for binding NBS DNA” value was not above 0.2.
Consider SVTN, for which the “one-hybrid fitness for binding NBS DNA” value is not above 0.2.
Turning to YNCF, the “one-hybrid fitness for binding NBS DNA” value was not above 0.2.
Turning to ANNN, the “one-hybrid fitness for binding NBS DNA” value was not above 0.2.
For KHAS, the “one-hybrid fitness for binding NBS DNA” value was not above 0.2.
Take YDHE: the “one-hybrid fitness for binding NBS DNA” value is not above 0.2.
In the case of PCAP it was not above 0.2; in that of TKST, not above 0.2; in that of AGYV, not above 0.2.
In the case of NHDQ it was not above 0.2.
As for DVNP, the “one-hybrid fitness for binding NBS DNA” value is not above 0.2.
Take RASY: the “one-hybrid fitness for binding NBS DNA” value was not above 0.2.
On to QAKV, for which the “one-hybrid fitness for binding NBS DNA” value came out at 0.393.
On to LFKV, for which the “one-hybrid fitness for binding NBS DNA” value is not above 0.2.
Turning to YCER, the “one-hybrid fitness for binding NBS DNA” value is not above 0.2.
Consider RWRS, for which the “one-hybrid fitness for binding NBS DNA” value was determined as 0.234.
As for HAPL, the “one-hybrid fitness for binding NBS DNA” value is not above 0.2.
Then PKDR, with not above 0.2.
Turning to TTRF, the “one-hybrid fitness for binding NBS DNA” value is not above 0.2.
Take TPLN: the “one-hybrid fitness for binding NBS DNA” value was not above 0.2.
Then QPGT, with not above 0.2; and LLPV, with not above 0.2.
Then VCAF, with not above 0.2.
